Source: PMC4336329 (PLoS ONE, 2015)
The whole screen tested about 310,000 compounds, of which about 14,000 (4.5%) showed an effect of 50% or more. The effect is printed as a negative number. Some of the results follow.

Molecular target: human ether-à-go-go-related gene (hERG) potassium channel (human, UniProt Q12809)
Assay: primary screen, population patch clamp on CHO cells stably expressing hERG
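Further: peak tail current of the secondary pulse compared with the same well before compound.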

human ether-à-go-go-related gene (hERG) potassium channel, sequence (Q12809 whole entry, looked up): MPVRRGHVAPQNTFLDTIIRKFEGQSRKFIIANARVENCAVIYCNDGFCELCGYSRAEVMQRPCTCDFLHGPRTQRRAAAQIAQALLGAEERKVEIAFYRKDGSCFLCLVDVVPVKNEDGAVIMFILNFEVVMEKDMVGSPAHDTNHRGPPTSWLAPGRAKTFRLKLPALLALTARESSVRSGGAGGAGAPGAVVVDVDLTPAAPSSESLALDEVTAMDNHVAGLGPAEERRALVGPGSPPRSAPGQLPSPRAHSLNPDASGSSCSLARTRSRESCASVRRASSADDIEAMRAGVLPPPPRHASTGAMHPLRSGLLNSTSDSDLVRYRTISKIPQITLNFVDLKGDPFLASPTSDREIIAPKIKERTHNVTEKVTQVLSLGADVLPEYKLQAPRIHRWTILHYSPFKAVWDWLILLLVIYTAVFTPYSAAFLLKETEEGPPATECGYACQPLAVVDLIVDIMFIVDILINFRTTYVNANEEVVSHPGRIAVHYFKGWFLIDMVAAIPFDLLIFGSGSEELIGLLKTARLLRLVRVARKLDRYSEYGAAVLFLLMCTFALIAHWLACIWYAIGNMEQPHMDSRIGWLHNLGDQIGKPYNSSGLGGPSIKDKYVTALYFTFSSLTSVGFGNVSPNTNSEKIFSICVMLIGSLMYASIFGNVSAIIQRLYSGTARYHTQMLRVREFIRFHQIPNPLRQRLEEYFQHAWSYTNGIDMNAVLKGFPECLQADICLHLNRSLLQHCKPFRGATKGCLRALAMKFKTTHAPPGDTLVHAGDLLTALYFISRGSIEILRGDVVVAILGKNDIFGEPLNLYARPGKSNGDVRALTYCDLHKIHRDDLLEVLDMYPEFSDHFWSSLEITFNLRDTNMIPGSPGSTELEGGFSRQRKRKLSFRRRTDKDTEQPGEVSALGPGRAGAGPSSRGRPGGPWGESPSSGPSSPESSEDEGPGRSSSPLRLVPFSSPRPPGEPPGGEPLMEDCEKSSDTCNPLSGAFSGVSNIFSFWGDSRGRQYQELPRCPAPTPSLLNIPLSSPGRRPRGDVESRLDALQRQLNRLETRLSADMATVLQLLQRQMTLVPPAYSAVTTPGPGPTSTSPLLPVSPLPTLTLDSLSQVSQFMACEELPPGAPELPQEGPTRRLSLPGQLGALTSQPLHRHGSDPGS

First: CC(C)(C)C1CCC(OC(=O)CN2CCOCC2)CC1 (stereo not drawn)
Second: CC1CCc2nc(NC(=O)CN3CCN(c4ccc(F)cc4)CC3)sc2C1 (stereo not drawn)
The “hERG current change (%, negative = inhibition) at 10uM” value of the first is higher: 2.28% for the first, -4.39% for the second.

First: N#C/C(=C\C=C\c1ccccc1[N+](=O)[O-])c1nc(-c2ccc3c(c2)OCO3)cs1
Second: O=C(Nc1nc2ccc(Cl)cc2s1)c1ccc(N2CCCCC2)c([N+](=O)[O-])c1
The “hERG current change (%, negative = inhibition) at 10uM” value of the first is lower: -13.1% for the first, 10.6% for the second.

Going from `O=c1cc(-c2ccc(O)cc2)oc2c(O)c(O)c(O)c(O)c12` to `COc1ccc(-c2nonc2NC(=O)c2oc3ccccc3c2C)cc1OC`, the “hERG current change (%, negative = inhibition) at 10uM” value falls from 5.79% to 3%.

First: CC1CCCC(C)N1/N=C/c1ccccc1F (stereo not drawn)
Second: COc1cc(CNCCc2ccccc2F)ccc1OCC(=O)N1CCCCC1.Cl
The “hERG current change (%, negative = inhibition) at 10uM” value of the first is higher: 12.1% for the first, 1.99% for the second.

Compared with `Cc1cc[n+](-c2[nH]c(=O)sc2/C=N/N=C(\[O-])CCn2c3ccccc3c3ccccc32)cc1`, `COc1cccc(/C=N/NC(=O)c2ccc(CN3c4cccc5cccc(c45)S3(=O)=O)cc2)c1` is lower in “hERG current change (%, negative = inhibition) at 10uM” value: 11.1% for the first, 6.69% for the second.

Going from `CCCCSc1ncc(C(=O)OCC)c(N)n1` to `CCn1c(SCC(=O)NCc2ccco2)nc2cccnc21`, the “hERG current change (%, negative = inhibition) at 10uM” value rises from -19.5% to 0.868%.

Going from `Cc1cccc(-c2nc(CS(=O)CC(=O)NCCc3ccc(Cl)cc3)c(C)o2)c1` (stereo not drawn) to `Cc1cnc(C(=O)NCCc2ccc(S(=O)(=O)NC(=O)NC3CCCCC3)cc2)cn1`, the “hERG current change (%, negative = inhibition) at 10uM” value rises from -4.38% to 0.262%.

Compared with `Cc1nn(Cc2noc(C(=O)NCCCn3ccnc3)n2)c(C)c1Br`, `COc1ccc(NS(=O)(=O)c2ccc(C)c(C(=O)N3CC(C)OC(C)C3)c2)cc1` (stereo not drawn) is lower in “hERG current change (%, negative = inhibition) at 10uM” value: 14% for the first, -14% for the second.

First: Cc1cccc(C(=O)NCC(=O)N2CCOCC2)c1
Second: O=C(Oc1ccc(C(=S)N2CCOCC2)cc1)c1ccc([N+](=O)[O-])cc1
The “hERG current change (%, negative = inhibition) at 10uM” value of the first is lower: 6% for the first, 16.6% for the second.

First: Cl.OCCN(CCO)CC(O)COc1ccc2c(c1)OCO2 (stereo not drawn)
Second: CC(C)(C)c1ccc2c(c1)OCC(C(=O)O)O2 (stereo not drawn)
The “hERG current change (%, negative = inhibition) at 10uM” value of the first is lower: 2.18% for the first, 15.8% for the second.

Going from `COc1ccc(NC(=O)c2nn(C)c(C(=O)Nc3ccc(OC)cc3)c2[N+](=O)[O-])cc1` to `CCOC(=O)c1oc2ccc(S(=O)(=O)n3nc(-c4cc(OC)c(OC)c(OC)c4)cc3N)cc2c1C`, the “hERG current change (%, negative = inhibition) at 10uM” value falls from 25.2% to -2.44%.

Going from `CC(C)CNS(=O)(=O)c1ccc(S(=O)(=O)NC2CCOC(C)(C)C2)cc1` (stereo not drawn) to `CCOC(=O)C1CCN(C(=O)Cn2c(=O)c3cccn3c3cccnc32)CC1`, the “hERG current change (%, negative = inhibition) at 10uM” value rises from -0.841% to 3.76%.
